Measured values: the supplement of paper PMC3334620
Over roughly 33,000 sequences, “E-score (-0.5 to 0.5)” has its median near -0.012; the highest 2% begin near 0.29. The list shows a part of the results.

Molecular target: T1, Ybr033w (UniProt P38073)
T1 sequence: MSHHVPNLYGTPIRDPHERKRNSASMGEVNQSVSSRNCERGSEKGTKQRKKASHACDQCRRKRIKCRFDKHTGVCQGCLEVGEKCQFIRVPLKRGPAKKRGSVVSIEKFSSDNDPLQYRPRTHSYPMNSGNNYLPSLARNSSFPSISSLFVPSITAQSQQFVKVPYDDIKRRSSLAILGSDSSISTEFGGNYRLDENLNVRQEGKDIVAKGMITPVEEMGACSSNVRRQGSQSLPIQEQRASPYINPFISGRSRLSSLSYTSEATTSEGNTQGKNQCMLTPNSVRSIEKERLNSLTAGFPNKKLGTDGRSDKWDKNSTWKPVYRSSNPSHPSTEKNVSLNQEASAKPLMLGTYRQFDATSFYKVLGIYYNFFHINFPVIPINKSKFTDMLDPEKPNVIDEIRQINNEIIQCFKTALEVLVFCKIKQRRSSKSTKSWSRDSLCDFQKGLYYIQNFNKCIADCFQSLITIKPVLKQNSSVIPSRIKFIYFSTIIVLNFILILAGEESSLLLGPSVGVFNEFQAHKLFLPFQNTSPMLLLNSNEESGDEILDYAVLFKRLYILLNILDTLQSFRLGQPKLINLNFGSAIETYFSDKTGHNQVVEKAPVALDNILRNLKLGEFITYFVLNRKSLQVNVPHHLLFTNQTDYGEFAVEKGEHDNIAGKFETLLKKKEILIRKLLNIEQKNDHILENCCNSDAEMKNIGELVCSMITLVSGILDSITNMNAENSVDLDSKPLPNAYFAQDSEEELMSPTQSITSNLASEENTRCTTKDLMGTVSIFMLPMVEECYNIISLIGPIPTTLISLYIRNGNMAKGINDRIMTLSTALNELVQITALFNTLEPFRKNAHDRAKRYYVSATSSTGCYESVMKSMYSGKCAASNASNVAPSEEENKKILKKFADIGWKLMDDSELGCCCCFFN
Experiment: PBM E-score (8-mer binding enrichment) (E-score (-0.5 to 0.5)); higher = stronger / more preferred TF binding; most listed sequences are background and not binding sites
Settings: protein concentration: 200 nM; construct: GST-full length
Summary of the method: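 Universal all-10-mer Agilent arrays, fresh or stripped once, were converted to double-stranded form by primer extension. GST-tagged yeast transcription factors from PURExpress in vitro transcription/translation, full-length or DNA-binding domain only, were applied at about 100-200 nM and detected with fluorescent anti-GST. After masliner normalisation, the Universal PBM Analysis Suite scored each ungapped eight-base word together with its reverse complement by E-score.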

Row | Sequence | PBM E-score
1 | ATCACTGG | -0.0231
2 | CACGTTTC | -0.222
3 | ATCTTGCG | 0.0267
4 | ACTAGCAA | 0.0128
5 | CGTGGTGA | -0.128
6 | CCACACAA | 0.033
7 | CATCCAGA | -0.00544
8 | ACCCGATA | -0.132
9 | AGCCCACT | -0.192
10 | CGGCGCGA | 0.0349
11 | CCACGCCA | -0.123
12 | GCTGGTAC | -0.187
13 | ACGCGGAC | -0.195
14 | CTTGTAGC | -0.0215
15 | AGCCCCCT | -0.418
16 | GTCGTAGA | 0.029
17 | ACGGTGCT | -0.196
18 | CGGCAAGA | -0.0437
19 | CCGGGTCG | -0.279
20 | GGCACTAA | -0.0615
21 | AGGATGAT | 0.213
22 | ACCGGATG | 0.0683
23 | GGCATCCC | -0.344
24 | GGCTCAGA | 0.0748

Row | Sequence | PBM E-score
25 | CGACGCGA | -0.0933
26 | ACTTTGAT | 0.084
27 | GAGTGTTA | 0.138
28 | AAAGTACA | 0.055
29 | ACATCCAC | 0.137
30 | AGCCGTCC | -0.0864
31 | GGTGCTGA | -0.181
32 | AATGGTAC | 0.145
33 | AAAAATAG | 0.296
34 | CTATGCGC | 0.0143
35 | AGCTCCTA | -0.147
36 | TCTGATCA | 0.0867
37 | GAGGGCTA | -0.222
38 | GAGCATCA | -0.0851
39 | TCTCGCAA | -0.0365
40 | GCTTTTCC | -0.0473
41 | CAACCTTC | -0.00721
42 | AGTAAGCA | 0.0587
43 | ACAATCTA | 0.151
44 | GGGATGCA | -0.163
45 | GCTTAGCC | -0.192
46 | CATCTGGG | -0.0895
47 | ACGGCTTA | 0.017
48 | CGCACACC | -0.0199

Row | Sequence | PBM E-score
49 | AACTAGAG | 0.0385
50 | TGACTGAA | -0.172
51 | ATCTACCG | -0.0234
52 | AGACACGA | -0.0115
53 | ACTAGAGG | -0.155
54 | ATCACTCA | 0.146
55 | GATCTAAA | 0.053
56 | GGGAGCGA | -0.261
57 | GACTCGCC | -0.288
58 | GATACTCA | 0.118
59 | CCGAGTGA | -0.017
60 | ACAACACG | -0.133
61 | TTAGGCAA | 0.0136
62 | CCATACGG | -0.148
63 | AATTACAA | 0.107
64 | AGATTTAT | 0.249
65 | GGGGACGA | -0.0926
66 | AACATAAA | 0.11
67 | GGCAAGCC | -0.303
68 | AAACTTCT | 0.281
69 | AATTTGTG | 0.254
70 | AAGGACAA | 0.021
71 | AACGCACT | 0.0537
72 | CTGGGACA | -0.222

Row | Sequence | PBM E-score
73 | CCGGCTAA | -0.0556
74 | GTAGCGCA | 0.112
75 | GCGTATTA | 0.182
76 | TAGCGCAA | 0.153
77 | ACGGTCTC | -0.152
78 | AGTACGCC | -0.141
79 | GGGTAGTA | -0.153
80 | CACATCAG | -0.105
81 | ATTAGTCG | 0.0932
82 | ACTCCCTA | 0.0398
83 | CGGCTTAG | -0.0372
84 | CCTAACAC | 0.151
85 | GTCGTCGA | -0.0776
86 | CACCCGAA | 0.139
87 | AATGCCGA | 0.0273
88 | AGCGCCGC | -0.328
89 | ACGAAATG | 0.0703
90 | AGCAGAGA | -0.152
91 | GGCGAAAA | 0.171
92 | GAAGTCCA | -0.108
93 | CCATCGCG | 0.114
94 | GCATTTAA | 0.117
